The campaign covered roughly 46,000 compounds. About 60 (0.1%) were called active. Inconclusive results (about 3%) are left out. Calls follow the shape of the dose curve; as a rule, active = well fitted inhibition curve with a large enough effect; inconclusive = small, poorly fitted or top-dose-only effect; inactive = no such curve, though single readings can be large or run the other way. Some of the results follow.
Experiment: Primary qHTS assay for Inhibitors of ovarian cancer metastasis using an organotypic tumor microenvironment (TME) model. Also: nearly all actives have a fitted effect of over 65% in size.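 As to activity change, negative = inhibition: plate controls were DMSO wells for no effect and tomatine positive control wells for full effect.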
Details: SKOV3ip1-GFP adhesion/invasion on 3D omental model, fluorescence; series mostly up to 45.8 µM; activity change, negative = inhibition: at the top concentration
In short: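 qHTS, 4-pt dose (0.36-46 umol/L); SKOV3ip1-GFP, 1,200 cells/well, no FBS; primary omental fibroblast/mesothelial co-culture 48 h pre-grown; 2 h RT + 16 h 37 C; PBS wash, 4% PFA; GFP count 488/509 nm.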

Activity change, negative = inhibition, inactive:
CCOC(=O)CCn1nc(C)c2c(C)n(-c3ccccc3)nc2c1=O -5.22%
Cc1nc2cc(C(=O)O)ccc2n1-c1ccc(C(C)C)cc1 -0.413%
COc1ccc(OC)c(CNC(=O)CN2C(=O)CCn3nc(-c4cn(C)c5ccccc45)cc32)c1 11.7%
Cc1nc2nc(SCC(=O)NCc3ccccc3)nn2c(C)c1Cc1ccccc1 0.294%
CC(C)CC(=O)Nc1ccc(Cl)c(-c2nc3ccccc3[nH]2)c1 1.94%
Cc1ccc(NC(=O)c2ccc(Br)cc2)c(C(=O)c2ccccc2)c1 6.39%
COc1cc2nc(NCC(C)c3ccccc3)n3nc(-c4ccccc4)nc3c2cc1OC (stereo unspecified) -0.432%
Cc1ccc(C)n1-c1nnc(N2CCCC(C(=O)NCc3ccccc3)C2)s1 (stereo unspecified) -4.31%
CCOc1nc(NC(=O)NS(=O)(=O)Oc2ccccc2Cl)nc(-c2ccccc2)n1 -7.13%
CCOC(=O)c1ccccc1NC(=O)N(Cc1ccco1)C1CCN(C(C)=O)CC1 -26.3%
CCc1cccc(NC(=O)CN2C=NS(=O)(=O)c3ccccc32)c1 3.57%
CC(=O)Oc1ccccc1C(=O)O -3.39%
O=C(NCc1ccccc1)C(=O)NCC(c1cccnc1)N1CCN(c2ccccc2)CC1 (stereo unspecified) 1.6%
COc1ccc(CCNC(=O)c2nn(C)c3c2CSc2ccccc2-3)cc1OC -1.48%
CCc1ccc(NC(=O)CSc2nc3ccsc3c(=O)n2C(C)CC)cc1 (stereo unspecified) 2.17%
O=C(c1ccco1)n1nc(-c2ccccc2)nc1NCc1ccccc1Cl 38.5%
COc1cc(CN(C(=O)c2oc3ccccc3c2C)C2CCS(=O)(=O)C2)cc(OC)c1OC (stereo unspecified) 13.5%
COc1ccccc1-n1c(SCC(=O)Nc2ccc(C)cc2)nc(O)cc1=O 9.72%
CNS(=O)(=O)CCc1ccc2[nH]cc(C3CCN(C)CC3)c2c1 -11.6%
CCc1ccc(-c2cc(C)no2)cc1S(=O)(=O)Nc1ccc(Cl)cc1 -7.02%
COc1ccc(-c2noc(-c3ccc(NC(C)c4ccccc4)c([N+](=O)[O-])c3)n2)cc1OC (stereo unspecified) 3.28%
COc1cc(NS(=O)(=O)c2ccc3oc(=O)c4ncn(C)c4c3c2)cc(OC)c1 7.49%
Cc1ccc(-c2nc(S(=O)(=O)c3ccc(C)cc3)c(SCC(=O)NC3CCCCC3)o2)cc1 4.4%
COc1ccccc1CNC(=O)CCC1N=C2c3ccccc3N=C(SCC(=O)NCCc3ccc(OC)c(OC)c3)N2C1=O (stereo unspecified) 24.8%
COc1cccc(NC(=O)c2cc3c(=O)n(Cc4cccnc4)ccc3nc2C)c1 0.224%
CCCN1C(=O)c2[nH]nc(-c3ccc(F)cc3)c2C1c1ccccn1 (stereo unspecified) -0.634%
COc1cccc(C2CC(=O)N3CN(C4CCCCC4)CSC3=C2C#N)c1 (stereo unspecified) -6.22%
COc1cc(NC(=O)C(CCS(C)(=O)=O)N2Cc3ccccc3C2=O)cc(OC)c1OC (stereo unspecified) -2.24%
COc1ccc(-n2cc(C(=O)NC(C)c3ccccc3)c3ccccc3c2=O)cc1 (stereo unspecified) 21.1%
O=C(NC1CCCC1)c1ccc(CSc2nc3ccncc3n2Cc2ccc(F)cc2)cc1 6.31%
Cc1ccc(N2CC(c3nnc(NC(=O)c4ccco4)s3)CC2=O)cc1C (stereo unspecified) -3.77%
CCOc1ccc(NC(=O)c2ccc(-c3cccc(Cl)c3C)o2)cc1 -4.39%
CCCCC[C@H](O)C=C[C@H]1[C@H](O)CC(=O)[C@H]1CC=CCCCC(=O)O -15.9%
Cc1ccc(NC(=O)Cn2cc(S(=O)(=O)N3CCCC3)c(S(=O)(=O)N3CCCC3)c2)cc1C -8.64%
CCOc1ccc(Cn2c(CNS(=O)(=O)c3ccc([N+](=O)[O-])cc3)nc3cccnc32)cc1 -6.47%
Cc1cccc(C2C=C(c3ccc(F)cc3)Nc3nc4ccccc4n32)c1 (stereo unspecified) 4.06%
CCOC(=O)c1cnc2c(ccc3ccccc32)c1Nc1ccc(OC)c(OC)c1 -20.4%
O=c1c2cc3c(nc2ncn1Cc1ccccc1F)CCCC3 -19.9%
Cc1ccc(NC(=O)Nc2nnc(SCC(=O)N3CCC(C)CC3)s2)cc1 -24%
COCCn1ccc2c(OCC(=O)NCc3ccc(F)cc3)cccc2c1=O 3.2%
O=C(Nc1nc2cccc(-c3ccc(CN4CCS(=O)(=O)CC4)cc3)n2n1)C1CC1 15.1%
COc1ccc(C(=O)NCCSc2c(C)[nH]c3ccccc23)cc1 1.46%
COc1ccccc1-c1cc(C(F)(F)F)nc(S(=O)(=O)CCCC(=O)Nc2ccc(F)c(Cl)c2)n1 -2.94%
COc1ccc(NC(=O)c2sc3nc(-c4cc5cccc(OC)c5oc4=O)[nH]c(=O)c3c2C)cc1 12.3%
Cc1c(NS(C)(=O)=O)cccc1-c1nc2ccccc2s1 -7.81%
Cc1ccc(C)c(CN2C(=O)c3ccccc3S(=O)c3ccc(C(=O)NCCc4ccc(Cl)cc4)cc32)c1 (stereo unspecified) -2.12%
COc1ccc(NC(=O)c2cc(C3CC3)nc3c2c(C)nn3-c2ccc(C)cc2)cc1OC -21.2%
COc1cccc(CNC(=O)NCc2noc3ccc(C)cc23)c1 -2.12%
COc1ccc(N2CCN(C(=O)CCS(=O)(=O)c3cc(Br)cc4c3N(C(=O)C3CC3)CC4)CC2)cc1 -6.76%
COc1ccc(NC(=O)Nc2nnc(N3CCCCCC3)s2)c(OC)c1 3.4%
COc1ccc(NC(=O)CN2C(=O)COc3ccc(S(=O)(=O)N4CCOCC4)cc32)cc1Cl -3.58%
Cc1ccc(NC(=O)CN2C=NS(=O)(=O)c3ccccc32)c(C)c1 -1.24%
O=C(Nc1cc2c(cc1C(=O)c1ccc(Br)cc1)OCCO2)c1ccc(Cl)cc1 -0.146%
COc1cccc(-n2c(=O)c3cc(OC)c(OC)cc3n(CC(=O)Nc3ccccc3)c2=O)c1 6.58%
Cc1ccc(N2CC(NC(=O)c3ccco3)CC2=O)cc1 (stereo unspecified) -9.43%
CCOc1ccc(NC(=O)CSC2=Nc3ccccc3C3=NC(CC(=O)NCc4ccccc4OC)C(=O)N23)cc1 (stereo unspecified) 4.74%
O=C(c1ccc2c(c1)N(Cc1ccc(F)cc1)C(=O)c1ccccc1S2(=O)=O)N1CCCCCC1 42.8%
COc1ccc(CCn2c(=O)c3ccccc3n(CC(=O)Nc3cccc(C)c3)c2=O)cc1OC 1.68%
CC(=O)Nc1ccccc1-c1nc2ccccc2n(CC(=O)Nc2ccc(C)c(Cl)c2)c1=O -3.19%
Cc1ccc(C)c(S(=O)(=O)c2cn(C)c3cc(F)c(F)cc3c2=O)c1 4.12%
Cc1oc(-c2ccccc2F)nc1CS(=O)(=O)CC(=O)N1CCN(c2ccc(Cl)cc2)CC1 2.12%
O=S(=O)(c1ccc(Br)cc1)c1nc(-c2cccs2)oc1SCc1ccc(F)cc1 0.238%
CCn1c(COc2cccc(C)c2)nc2ccccc21 -2.21%
Cc1ccc(NC(=O)CSc2nc3c(c(=O)[nH]2)CCC3)cc1Cl -12%
CCN(C(=O)CCS(=O)(=O)c1ccc2c(c1)oc(=O)n2C)c1ccc(OC)cc1 1.91%
Cc1ccccc1CN1C(=O)c2ccccc2S(=O)c2ccc(C(=O)NCc3ccco3)cc21 (stereo unspecified) 8.13%
Cc1[nH]c2ccc(C(=O)Nc3ccc(F)cc3)cc2c1C -9.18%
CC(C)CCNC(=O)CCC(=O)N1Cc2ccccc2Oc2ncccc21 1.79%
COc1cc2c(cc1NC(=O)COc1ccc(Br)cc1C)oc1ccccc12 2.87%
Cc1ccc(CNC(=O)c2ccc3c(c2)NC(=O)C(CS(=O)(=O)Cc2ccc(F)cc2)N3)cc1 (stereo unspecified) 9.68%
CN(C)c1cccc(C(=O)Nc2nc3ccc(S(=O)(=O)NC(C)(C)C)cc3s2)c1 -13.9%
O=C(c1ccccc1)c1ccc2nc(N3CCN(c4ccccc4)CC3)c3nncn3c2c1 -2.76%
Cc1cc2c(cc1S(=O)(=O)NCc1ccccc1)OCC(=O)N2 -1.81%

outcome, inactive:
CCOC(=O)c1sc(NC(=O)c2cc3nc(-c4ccc(Br)cc4)cc(C(F)(F)F)n3n2)c(C(=O)OCC)c1C
N#Cc1ccc(NS(=O)(=O)c2ccc(-c3cnc(C4CC4)o3)cc2)cc1
Cc1ccc(NC(=O)CCc2c(C)nc3nc(C)nn3c2C)c(Cl)c1
CNC(=O)c1ccc(Nc2nnc(-c3ccc(C)c(S(=O)(=O)N4CCOCC4)c3)c3ccccc23)cc1
Cc1cccc(-c2nc(Cn3c(SCc4cc(C)ccc4C)nc4ccncc43)c(C)o2)c1
CC(=O)Nc1ccc(S(=O)(=O)NCCc2csc3nc(-c4cccc(C)c4)nn23)cc1
Cc1ccc(N(Cc2cccs2)C(=O)COc2ccccc2[N+](=O)[O-])cc1
O=C(CCCn1c2ccccc2c(=O)c2ccccc21)Nc1ccc(F)cc1Cl
Cc1ccc(-c2nn3c(-c4ccc(C)cc4)nnc3c3ccccc23)cc1
CC1CN(C(=O)N2CCC(C(=O)NC3CCCCCC3)CC2)c2ccccc2O1 (stereo unspecified)
CCOC(=O)c1c(C)[nH]c(CCC(=O)NCc2ccccc2C)c1C
CCOc1ccccc1CN(CCc1ccc2c(c1)OCO2)Cc1cccc(OC)c1OC
COc1ccc(C(=O)N2CCC(c3c[nH]c4ccccc34)(c3c[nH]c4ccccc34)CC2)cc1
CN(C)c1ccc(CNC(=O)C2CCN(S(=O)(=O)c3cn(C)cn3)CC2)cc1
COc1ccccc1CNC(=O)c1oc2c(c1C)-c1nn(Cc3ccc(Cl)cc3)cc1CC2
CCOc1ccc(N(CC)S(=O)(=O)N2CCCC(C(=O)NCc3ccc(SC)cc3)C2)cc1 (stereo unspecified)
O=C(c1ccc2c(c1)N(Cc1ccc(Cl)cc1)C(=O)c1ccccc1S2(=O)=O)N1CCC(Cc2ccccc2)CC1
Cc1ccc(S(=O)Cc2ccc(C(=O)NC3CCCCCC3)o2)cc1 (stereo unspecified)
CCc1cccc(NC(=O)c2c(N3CCCC3=O)c3cc(C)ccc3n2C)c1
CCS(=O)(=O)N1CCC2(CC1)OC(=O)C(C)=C2C(=O)NCc1cccc(Cl)c1
CCn1c(SCC(=O)Nc2ccccc2)nc2c([nH]c3ccccc32)c1=O
Cc1ccccc1NS(=O)(=O)c1ccc2c(c1)NC(=O)CCS2
Cc1ccc(C)c(N2CCN(C(=O)C3CCN(C(=O)c4cc5sccc5n4C)CC3)CC2)c1

From PubChem BioAssay AID1963576 (National Center for Advancing Translational Sciences (NCATS), 2024)
